In the supplement of paper PMC3334620:
The full ranking holds about 33,000 sequences; the median of “E-score (-0.5 to 0.5)” is about -0.035, and the highest 2% start at about 0.35. Some of the results follow.

Target: T1, Pdr3 (UniProt P33200)
T1 sequence: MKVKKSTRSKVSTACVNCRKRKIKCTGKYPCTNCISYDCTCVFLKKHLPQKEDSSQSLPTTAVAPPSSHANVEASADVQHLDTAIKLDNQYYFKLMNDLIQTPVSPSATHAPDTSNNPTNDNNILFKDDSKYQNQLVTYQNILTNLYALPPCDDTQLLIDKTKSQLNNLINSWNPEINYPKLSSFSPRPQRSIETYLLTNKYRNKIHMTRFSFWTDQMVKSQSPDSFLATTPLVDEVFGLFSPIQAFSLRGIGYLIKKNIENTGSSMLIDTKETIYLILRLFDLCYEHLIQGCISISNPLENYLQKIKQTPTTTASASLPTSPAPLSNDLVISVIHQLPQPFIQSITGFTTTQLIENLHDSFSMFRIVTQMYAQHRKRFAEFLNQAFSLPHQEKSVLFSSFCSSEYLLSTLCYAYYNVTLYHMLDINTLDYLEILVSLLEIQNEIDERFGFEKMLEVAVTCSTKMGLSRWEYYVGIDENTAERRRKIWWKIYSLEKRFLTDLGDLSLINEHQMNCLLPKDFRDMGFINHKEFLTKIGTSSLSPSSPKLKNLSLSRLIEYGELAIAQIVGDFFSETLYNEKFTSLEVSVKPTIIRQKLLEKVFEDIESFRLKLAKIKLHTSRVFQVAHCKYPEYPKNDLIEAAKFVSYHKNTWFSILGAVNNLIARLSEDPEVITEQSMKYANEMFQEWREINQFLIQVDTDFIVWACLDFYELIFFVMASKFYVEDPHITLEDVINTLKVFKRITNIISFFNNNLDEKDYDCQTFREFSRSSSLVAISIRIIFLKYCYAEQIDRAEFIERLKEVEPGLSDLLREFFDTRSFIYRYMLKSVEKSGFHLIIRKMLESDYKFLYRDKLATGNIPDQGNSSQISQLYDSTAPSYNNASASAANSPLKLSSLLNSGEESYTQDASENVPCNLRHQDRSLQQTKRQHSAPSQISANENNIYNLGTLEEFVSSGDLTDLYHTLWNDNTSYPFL
Experiment: PBM E-score (8-mer binding enrichment) (E-score (-0.5 to 0.5)); higher = stronger / more preferred TF binding; most listed sequences are background and not binding sites
Settings: protein concentration: 200 nM; construct: GST-full length
In short: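 Universal all-10-mer Agilent arrays, double-stranded by primer extension on fresh or once-stripped slides, were probed with about 100-200 nM GST-tagged yeast transcription factors made by PURExpress. Fluorescent anti-GST detected bound protein, and masliner normalised the scans. E-scores from the Universal PBM Analysis Suite were given to each ungapped eight-base word pooled with its reverse complement.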

Sequence	PBM E-score
CAATGTGC	-0.027
GATATGCA	0.092
AGGGTACC	-0.275
GCGACATA	0.0178
AAGGAGCG	-0.135
GACGTTAC	-0.178
GTCTGGAA	-0.284
CACTTACC	0.126
CGGGGAAA	0.246
TGCCATAA	0.0031
GAAGTAAC	0.125
CGATGTTA	-0.0363
CCTGTGCG	0.0807
CAACTTAA	-0.24
AGTAGAAA	0.00335
TACCCTAA	-0.214
GTGCAACA	-0.167
GTGTGATA	0.0691
AGGTTTAT	0.222
CCCTCGCG	0.102
TAGTGCGA	0.00869
TAGCTTGA	-0.186

Sequence	PBM E-score
GACGAAGA	-0.0729
ATAATTGA	0.0204
CGTGTAAC	-0.0863
ATCCCTCC	0.0107
CGGTATCC	0.248
TTACCCAA	-0.285
ACCACACT	-0.0302
CTGAGGGC	-0.316
ATAAATAT	0.196
CGGTCGCC	0.224
CTACACCC	-0.0586
GCGGCCAC	0.123
TCGCACCA	0.0248
GAGATTAC	-0.0428
CGCACGGA	0.413
AATTCACT	-0.118
AGCGCGCG	0.246
AAACCTCG	-0.0122
ACAGTCCT	-0.289
ATCCTCAC	-0.0113
ATTGAAGA	-0.128
ATTATGCC	0.07

Sequence	PBM E-score
CAGACATG	-0.0994
AGCTACCC	-0.153
CGACCGTC	-0.207
ACAACCGA	0.136
ATAGGAGG	-0.198
TGGAATAA	-0.00691
AGTGAGAA	0.0591
GCTCGCTA	-0.0721
AGTACCAT	-0.172
AACGGACA	0.363
CCTAATGC	-0.312
ACGGAGCC	0.305
AGGCGTAC	-0.182
ACTGACTG	-0.0706
TAATACTA	0.00766
AATTTTTC	0.148
CGCACTCC	0.0021
ACCCGAAT	0.249
CTGATAAC	-0.125
ATCTAAAA	-0.032
CGTAAGGC	-0.231
GAACCGCC	0.19

Sequence	PBM E-score
TCCCCGGA	0.411
CTAGTTTC	0.153
CGTTCGCC	0.0459
CAGGGGAA	-0.00991
ATCCGCAC	0.333
CACAATCA	0.0165
GGATACAC	0.182
AGACGCAT	0.00451
CCATAAAG	-0.164
ATCTTGCC	0.0916
ACTTGTAG	-0.226
GACTTAGC	-0.195
ACCTCGGC	0.307
ACAGTGCC	0.115
TCCTCGAA	-0.0662
GAAAATTC	0.107
CATTGGTA	0.0535
ATGTCCTC	-0.0318
CGCCTATC	-0.0409
GCTCTTGA	-0.0768
